# Assay results taken from paper PMC8204860.
# Results are given in words; binding and its absence hold for the method and conditions named. For part of these data: Binding seen in cells or lysates may run through a third protein. Some binding calls cover weakened binding; strength is not graded here. For part of these data: Sequences can lack the tags named with a protein.
# T1: Trs85[Δ575-603] (recombinant) (Saccharomyces cerevisiae) (UniProt P46944)
# T1 sequence: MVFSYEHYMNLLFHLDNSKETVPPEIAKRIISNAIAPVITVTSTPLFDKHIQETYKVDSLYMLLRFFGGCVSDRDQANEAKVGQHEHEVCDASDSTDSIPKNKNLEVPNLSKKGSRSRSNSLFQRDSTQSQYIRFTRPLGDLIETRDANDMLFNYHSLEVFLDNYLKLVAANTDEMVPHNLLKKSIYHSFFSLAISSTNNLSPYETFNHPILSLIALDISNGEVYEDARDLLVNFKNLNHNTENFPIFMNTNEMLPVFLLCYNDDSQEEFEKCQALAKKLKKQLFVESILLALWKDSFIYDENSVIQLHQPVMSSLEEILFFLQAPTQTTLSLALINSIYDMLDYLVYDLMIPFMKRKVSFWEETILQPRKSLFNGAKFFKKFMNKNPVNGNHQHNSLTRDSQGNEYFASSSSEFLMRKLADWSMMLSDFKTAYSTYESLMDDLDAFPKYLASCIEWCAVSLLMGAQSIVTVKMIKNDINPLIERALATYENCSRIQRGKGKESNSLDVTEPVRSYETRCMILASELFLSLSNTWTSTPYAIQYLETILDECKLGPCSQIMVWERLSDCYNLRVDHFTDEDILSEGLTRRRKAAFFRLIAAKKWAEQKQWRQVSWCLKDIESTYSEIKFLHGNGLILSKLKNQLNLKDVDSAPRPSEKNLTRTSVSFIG
# T2: Trs85 (Saccharomyces cerevisiae) (UniProt P46944)
# T2 sequence: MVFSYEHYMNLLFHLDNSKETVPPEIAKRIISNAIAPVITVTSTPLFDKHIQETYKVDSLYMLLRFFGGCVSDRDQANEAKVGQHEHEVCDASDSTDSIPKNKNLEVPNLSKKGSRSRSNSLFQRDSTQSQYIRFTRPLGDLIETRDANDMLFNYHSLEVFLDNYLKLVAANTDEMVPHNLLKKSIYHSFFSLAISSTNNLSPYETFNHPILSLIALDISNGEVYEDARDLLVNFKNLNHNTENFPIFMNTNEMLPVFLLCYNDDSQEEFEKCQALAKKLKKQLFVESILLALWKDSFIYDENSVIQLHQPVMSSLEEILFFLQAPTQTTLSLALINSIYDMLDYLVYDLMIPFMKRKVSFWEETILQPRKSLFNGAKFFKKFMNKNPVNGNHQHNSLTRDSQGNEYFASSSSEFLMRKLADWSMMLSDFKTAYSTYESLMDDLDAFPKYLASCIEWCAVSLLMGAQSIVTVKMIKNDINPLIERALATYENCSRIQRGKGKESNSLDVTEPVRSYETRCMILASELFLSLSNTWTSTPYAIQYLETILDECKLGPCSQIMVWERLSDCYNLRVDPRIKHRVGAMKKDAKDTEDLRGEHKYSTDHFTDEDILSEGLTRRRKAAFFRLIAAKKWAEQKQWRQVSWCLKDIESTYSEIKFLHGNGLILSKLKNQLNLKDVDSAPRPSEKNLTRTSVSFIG
# T3: Trs85[501-698] (Saccharomyces cerevisiae) (UniProt P46944)
# T3 sequence: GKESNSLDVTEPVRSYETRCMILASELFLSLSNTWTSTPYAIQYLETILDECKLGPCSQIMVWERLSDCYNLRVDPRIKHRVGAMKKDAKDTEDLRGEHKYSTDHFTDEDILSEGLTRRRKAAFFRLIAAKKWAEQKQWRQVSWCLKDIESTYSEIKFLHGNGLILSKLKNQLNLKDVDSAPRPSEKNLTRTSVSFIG
# T4: Trs20 (Saccharomyces cerevisiae) (UniProt P38334)
# T4 sequence: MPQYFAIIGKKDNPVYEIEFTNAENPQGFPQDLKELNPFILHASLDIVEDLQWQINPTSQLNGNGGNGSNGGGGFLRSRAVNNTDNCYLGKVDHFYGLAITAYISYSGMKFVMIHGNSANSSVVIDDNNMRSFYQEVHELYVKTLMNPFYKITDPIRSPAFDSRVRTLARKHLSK
# What was measured:
# [1] = biological target: T1, Trs85[Δ575-603] (recombinant) (Saccharomyces cerevisiae); test: pull-down; nickel-ion affinity purification (Ni-NTA) through the tagged Trs85 from lysate of E. coli co-expressing the core subunits; 40 mM Tris pH 8, 300 mM NaCl, 10% glycerol
# [2] = biological target: T2, Trs85 (Saccharomyces cerevisiae); test: SEC; recombinant complex co-expressed in E. coli, after Ni-NTA and MonoQ; Superdex200 10/300 in 10 mM Tris pH 8, 150 mM NaCl, 1 mM DTT; Coomassie gel of the fractions; both purified
# [3] = biological target: T3, Trs85[501-698] (Saccharomyces cerevisiae); test: as above
# [4] = biological target: T1, Trs85[Δ575-603] (recombinant) (Saccharomyces cerevisiae); test: as above
# [5] = biological target: T2, Trs85 (Saccharomyces cerevisiae); test: cryo-EM structure; TRAPPIII (after anion exchange) mixed 1:3 with Ypt1-7xHis, overnight at 4°C with calf intestinal alkaline phosphatase, complex isolated by SEC in 10 mM Tris pH 7.5, 350 mM NaCl, 1 mM DTT; 3.7 Å reconstruction; both purified
# [6] = biological target: T4, Trs20 (Saccharomyces cerevisiae); test: cross-linking; purified TRAPPIII-Rab1/Ypt1 complex, 625 µM DSSO, 1 h on ice, 10 mM HEPES pH 8, 150 mM NaCl, 1 mM DTT; LC-MS3, MaXLinker; both purified
# [7] = biological target: Trs31 (Saccharomyces cerevisiae) (UniProt Q03337); test: as above
# [8] = biological target: T4, Trs20 (Saccharomyces cerevisiae); test: cryo-EM structure; TRAPPIII (after anion exchange) mixed 1:3 with Ypt1-7xHis, overnight at 4°C with calf intestinal alkaline phosphatase, complex isolated by SEC in 10 mM Tris pH 7.5, 350 mM NaCl, 1 mM DTT; 3.7 Å reconstruction; both purified
# [9] = biological target: Trs31 (Saccharomyces cerevisiae) (UniProt Q03337); test: as above
binding [1],binding [2],binding [3],binding [4],binding [5],binding [6],binding [7],binding [8],binding [9],Binder
binds,binds,binds,binds weakly,binds,,,,,"TRAPP core (complex, UniProt P38334 1-175; Q03337 1-283; P36149 1-193; Q03784 1-219; Q03630 1-159; Q99394 …, covalently bound palmitate (residue not stated)) chain 1: MPQYFAIIGKKDNPVYEIEFTNAENPQGFPQDLKELNPFILHASLDIVEDLQWQINPTSQLNGNGGNGSNGGGGFLRSRAVNNTDNCYLGKVDHFYGLAITAYISYSGMKFVMIHGNSANSSVVIDDNNMRSFYQEVHELYVKTLMNPFYKITDPIRSPAFDSRVRTLARKHLSK chain 2: MSQRIIQPSASDQQFPGKSDGYEYTVGPKQAITSEASTTYIPSRIYSESLLFKRQEASLSAMAFLFQEMISQLHRTCKTAGDFETKLSDYGHNIGIRLLELLNFRASVSPSSLPRASAFLSQNESSSKLSNASNSPGMLANSSTATSASANERLQEKQTESLSNYITKMRRRDLKILDILQFIHGTLWSYLFNHVSDDLVKSSERDNEYMIVDNFPTLTQFIPGENVSCEYFVCGIIKGFLFNAGFPCGVTAHRMPQGGHSQRTVYLIQFDRQVLDREGLRFG chain 3: MVSTTQSRSLKAMGEEIWKNKTEKINTELFTLTYGSIVAQLCQDYERDFNKVNDHLYSMGYNIGCRLIEDFLARTALPRCENLVKTSEVLSKCAFKIFLNITPNITNWSHNKDTFSLILDENPLADFVELPMDAMKSLWYSNILCGVLKGSLEMVQLDCDVWFVSDILRGDSQTEIKVKLNRILKDEIPIGED chain 4: MAIETILVINKSGGLIYQRNFTNDEQKLNSNEYLILASTLHGVFAIASQLTPKALQLTQQTNIENTIPYIPYVGMSSNRSDTRNGGGNNNKHTNNEKLGSFKGDDFFKEPFTNWNKSGLRQLCTDQFTMFIYQTLTGLKFVAISSSVMPQRQPTIATTDKPDRPKSTSNLAIQIADNFLRKVYCLYSDYVMKDPSYSMEMPIRSNLFDEKVKKMVENLQ chain 5: MGIYSFWIFDRHCNCIFDREWTLASNSASGTINSKQNEEDAKLLYGMIFSLRSITQKLSKGSVKNDIRSISTGKYRVHTYCTASGLWFVLLSDFKQQSYTQVLQYIYSHIYVKYVSNNLLSPYDFAENENEMRGQGTRKITNRNFISVLESFLAPMVNQ chain 6: MSSTHSNNVGHPQSSPQGPLTEQQRAQQQYQIFENSLPKVSQSVYQMLLNEMVPLAMGIERQISGDVISSDSNVTSENGNINNMIKRLKIEEHHTVDIIRSHNLIHELYKADEEEKEKVLARLRNIGFQIGLKLSELLIFSNNPNLKFKEMDLLLIMKFICRDVWKQIFGKQIDNLKTNHRGTFYLLDYDYRPIQSFSLEEDAKNEELKMIEPFLEIPVGIIRGVLSSLGYSSEEVICLASFIDRPTDRPKTAFPKGVSFHVQVTMPQ"
,,,,,binds,binds,binds,binds,"Trs85 (protein, UniProt P46944 1-698) MVFSYEHYMNLLFHLDNSKETVPPEIAKRIISNAIAPVITVTSTPLFDKHIQETYKVDSLYMLLRFFGGCVSDRDQANEAKVGQHEHEVCDASDSTDSIPKNKNLEVPNLSKKGSRSRSNSLFQRDSTQSQYIRFTRPLGDLIETRDANDMLFNYHSLEVFLDNYLKLVAANTDEMVPHNLLKKSIYHSFFSLAISSTNNLSPYETFNHPILSLIALDISNGEVYEDARDLLVNFKNLNHNTENFPIFMNTNEMLPVFLLCYNDDSQEEFEKCQALAKKLKKQLFVESILLALWKDSFIYDENSVIQLHQPVMSSLEEILFFLQAPTQTTLSLALINSIYDMLDYLVYDLMIPFMKRKVSFWEETILQPRKSLFNGAKFFKKFMNKNPVNGNHQHNSLTRDSQGNEYFASSSSEFLMRKLADWSMMLSDFKTAYSTYESLMDDLDAFPKYLASCIEWCAVSLLMGAQSIVTVKMIKNDINPLIERALATYENCSRIQRGKGKESNSLDVTEPVRSYETRCMILASELFLSLSNTWTSTPYAIQYLETILDECKLGPCSQIMVWERLSDCYNLRVDPRIKHRVGAMKKDAKDTEDLRGEHKYSTDHFTDEDILSEGLTRRRKAAFFRLIAAKKWAEQKQWRQVSWCLKDIESTYSEIKFLHGNGLILSKLKNQLNLKDVDSAPRPSEKNLTRTSVSFIG"
